Data from PubChem BioAssay AID686979 (National Center for Advancing Translational Sciences (NCATS), 2013).
About 50,000 (12%) of roughly 420,000 compounds were called active. Inconclusive results, whose numbers are uncertain, are shown with a selection of clear calls. The call rests on the fitted dose curve; in most records, active means well fitted inhibition curve with a large enough effect; inconclusive means small, poorly fitted or top-dose-only effect; inactive means flat fitted curve, though single readings scatter. No potency is given beside an inconclusive call; the fits are too rough.

Test: qHTS for Inhibitors of human tyrosyl-DNA phosphodiesterase 1 (TDP1): qHTS in cells in presence of CPT; further: nearly all actives have a fitted effect of over 55% in size
Conditions: chicken DT40 Tdp1-/-;hTDP1 cells + 20 nM CPT, ATP luminescence, 48 h; activity change, negative = growth inhibition: at 46.2 µM (top of the series)
How it was run: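 Cell growth measured by CellTiter-Glo luminescence after a minimum 48 h, 37 C compound exposure with 20 nM CPT in Tdp1-knockout DT40 cells stably expressing hTDP1, seeded 400/well; qHTS titration format.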
On the % scale 0 is the no-effect control and ±100 the full control effect; potency means the concentration at half of the fitted maximal effect; tags describe the fitted curve by direction and shape.

Row | SMILES | Potency | activity change, negative = growth inhibition
1 | Cc1ccc(NC(=O)Cn2cc(S(=O)(=O)Cc3cccc(Cl)c3)c3ccccc32)cc1C | inconclusive [inhibitor, single point] | 
2 | COc1ccc(C2=C(C)C(=NCCCN3CCN(c4cc(Cl)ccc4C)CC3)NS2(=O)=O)cc1 | active: 6.51 µM | 
3 | CC(=O)Nc1ccc(-c2ccnc3c2CC(C)(C(=O)NCCc2ccccc2)O3)cc1 (stereo not given) |  | inconclusive: -31% [inhibitor]
4 | CC1/C=C/C=C/C=C/C=C/C=C/C=C/C=C/C(OC2OC(C)C(O)C(N)C2O)CC2O[C@@](O)(CC(O)CC(O)C(O)CCC(O)CC(O)CC(=O)OC(C)[C@H](C)C1O)CC(O)C2C(=O)O (stereo not given in full) | inactive | 
5 | COc1cc2[nH]c(C(=O)N3CCN(c4ccc(F)cc4)CC3)cc2c(OC)c1OC | inactive | 
6 | O=C(CCC1N=C2c3ccccc3N=C(SCc3ccccc3F)N2C1=O)NCc1ccccc1 (stereo not given) | inconclusive [inhibitor, single point] | 
7 | COc1cccc(-c2cnc3c(NC(C)=O)cc(-c4ccc(C(=O)N5CCOCC5)cc4)cn23)c1 | active: 20.6 µM | 
8 | Nc1ccnc(C(F)(F)F)c1C(=O)c1ccccc1 | inactive | 
9 | COc1ccc(C(CNC(=O)c2cc(S(=O)(=O)Nc3cccc(C)c3)ccc2C)N2CCCC2)cc1 (stereo not given) | inconclusive [inhibitor, single point] | 
10 | Cc1cnc(NC(=O)CCCc2nc3ccccc3s2)s1 | active: 14.6 µM | 
11 | CN1/C(=C\C(=O)c2cccs2)Sc2ccccc21 | inconclusive [inhibitor, partial curve, poor fit] | 
12 | Cn1c(-c2ccccc2)cnc1NCc1ccccc1O | inconclusive [inhibitor, single point] | 
13 | CCC(=O)NC(=S)Nc1ccc(NC(=O)c2ccc(C)c([N+](=O)[O-])c2)cc1 | inconclusive [inhibitor, partial curve] | 
14 | CN(C)c1ccc(-c2csc(C(C)(O)c3ccc(F)c(F)c3)n2)cc1 (stereo not given) | inconclusive [inhibitor, single point] | 
15 | CCCCCCN1CCN(C2CN(Cc3cn(Cc4cc(C)cc(C)c4)nn3)S(=O)(=O)C2)CC1 (stereo not given) | inconclusive [inhibitor, single point] | 
16 | COc1ccccc1Nc1cc(C)nc(Nc2ccccc2OC)n1 | active: 20.6 µM | 
17 | COc1ccc(N(CC(=O)NC(C)c2ccccc2)S(=O)(=O)c2ccc(C)cc2)cc1 (stereo not given) | inactive | 
18 | Cc1cnn(CCC(=O)NNC(=S)NCC(C)C)c1 | inconclusive [inhibitor, single point] | 
19 | Cc1cccc2c(=O)c(C(=O)NCCc3ccccc3)c[nH]c12 | inactive | 
20 | Cc1cc2nc(-c3ccc(Cl)cc3)c(Cc3ccsc3)n2c(C)c1Br | inconclusive [inhibitor, single point] | 
21 | CC1(C)C=C2[C@H]3CC[C@@H]4[C@@]5(C)CCC(=O)C(C)(C)[C@@H]5CC[C@@]4(C)[C@]3(C)CC[C@@]2(C(=O)O)CC1 | active: 5.17 µM | 
22 | CCOc1ccc(OCCCCn2cnc3ccccc3c2=O)cc1 | inconclusive [inhibitor, partial curve] | 
23 | COc1cccc(NC(=O)COc2ccc(C(=S)N3CCN(C)CC3)cc2OC)c1 | inconclusive [inhibitor, single point] | 
24 | CCOc1ccc(NC(=O)CCc2c(C)nn(-c3ccc(N4CCCCC4)nn3)c2C)cc1 | inconclusive [inhibitor, single point] | 

Row | SMILES | Potency | activity change, negative = growth inhibition
25 | Nc1cc(N)nc(SCc2cc(=O)oc3cc4c(cc23)CCC4)n1 | inconclusive [inhibitor, single point] | 
26 | Cc1c(C=O)c(Cl)n(C)c(=O)c1C#N | inactive | 
27 | CCOC(=O)Cc1csc(NC(=O)CSc2nnc(-n3nc(C)cc3C)c3ccccc23)n1 | inactive | 
28 | CCCn1nc(Oc2nc(N(C)C)nc(N(C)C)n2)ccc1=O | inactive | 
29 | COc1cc(CN(C(=O)COc2ccccc2Cl)c2ccccn2)cc(OC)c1OC | inconclusive [inhibitor, partial curve] | 
30 | CN(C)c1ccc(/C=C/C(=O)c2cc(Cl)ccc2O)cc1 | inconclusive [inhibitor, single point] | 
31 | COc1cccc(NC(=S)N(CCc2nc3cc(C)c(C)cc3[nH]2)Cc2cccnc2)c1 | active: 23.1 µM | 
32 | COc1cccc(-c2nn(C)c3sc(C(=O)N4CCN(c5ccccc5)CC4)cc23)c1 | active: 23.1 µM | 
33 | CC(C)CCNC(=O)CNC(=O)c1cccs1 | inactive | 
34 | Cc1nc2cnc(Oc3cccc(Cl)c3)nc2n(C2CC2)c1=O | inconclusive [inhibitor, single point] | 
35 | CCC(=O)Nc1ccc2nc(SCc3ccccc3)sc2c1 | inconclusive [inhibitor, single point] | 
36 | Cc1ccc(S(=O)(=O)N2CCN(C(=O)C3CCN(C(=O)c4ccc(F)cc4)CC3)CC2)c(C)c1 | inconclusive [inhibitor, partial curve] | 
37 | O=C(CSC1=N/C(=C/c2ccc(Cl)c(Cl)c2)C(=O)N1c1ccccc1F)NC1CC1 | active: 16.4 µM | 
38 | Cc1ccc(S(=O)(=O)N2CCCCC2)cc1C(=O)Nc1ccc(N2CCOCC2)cc1 | inconclusive [inhibitor, partial curve] | 
39 | O=C(CSc1nccn(-c2ccc(Br)cc2)c1=O)NC1CCCC1 | inconclusive [inhibitor, single point] | 
40 | COc1ccc2c(c1)c(C(C)=O)c(C)n2-c1ccccc1OC | inactive | 
41 | Cc1ccc2[nH]c(=O)c3cc(C(=O)NCCN4CCN(C)CC4)sc3c2c1 | inactive | 
42 | O=C(/C=C/c1ccccc1)c1ccc(O)cc1O | inconclusive [inhibitor, single point] | 
43 | COc1ccc(CC(=O)Nc2cc(-c3nc4cccnc4s3)ccc2C)cc1 | inconclusive [inhibitor, single point] | 
44 | Cc1nc2ccc(C(=O)N(C)Cc3ccccc3)cn2c1N(C)C(=O)CCc1ccccc1 |  | inconclusive: -33% [inhibitor]
45 | CCOC(=O)c1ccc(N2C(=O)c3n[nH]c(-c4cccs4)c3C2c2cccc(OC)c2)cc1 (stereo not given) | active: 25.9 µM | 
46 | CN(C)S(=O)(=O)N(CC(=O)NCCSCc1cccc(Cl)c1)c1ccccc1 | inconclusive [inhibitor, single point] | 
47 | O=S(=O)(c1ccc(Cl)cc1)c1nnn2c1nc(NCc1cccs1)c1sccc12 | inconclusive [inhibitor, single point] | 
48 | CCOc1ccc(-n2c(=O)c3c4c(sc3n(CC(=O)NC(C)CC)c2=O)CCC4)cc1 (stereo not given) | inactive | 

Row | SMILES | Potency | activity change, negative = growth inhibition
49 | CCO/C=N/Nc1nc(C(F)(F)F)nc2c1cnn2Cc1ccccc1 |  | inconclusive: -36.8% [inhibitor]
50 | Cc1cccc(NC(=O)CSc2nc3ccccc3nc2N2CCCC2)c1 | inconclusive [inhibitor, single point] | 
51 | O=C(NCCN1CCOCC1)c1cccs1 | inactive | 
52 | COc1ccc(C)cc1NC(=O)CSc1nc(=O)[nH]c2c1CCCC2 | inconclusive [inhibitor, single point] | 
53 | CN(Cc1ccccc1)C(=O)c1cccc(NC(=O)Cc2ccc(NC(=O)C3CCN(C(=O)C4CC4)CC3)cc2)c1 | inactive | 
54 | COc1cc2cc(CN(CCN3CCCC3)C(=O)Nc3ccc(F)cc3)c(=O)[nH]c2cc1OC | inconclusive [inhibitor, partial curve] | 
55 | CCC(CC)C(=O)N1CCc2cc(OC)c(OC)cc2C1COc1ccc(C(=O)OC)cc1 (stereo not given) | inconclusive [inhibitor, single point] | 
56 | CC(=O)Nc1cccc(C(=O)OCC(=O)NC(=O)NC2CCCC2)c1 | inconclusive [inhibitor, single point] | 
57 | S=C1NCCN1CC1CCN(CCC23CC4CC(CC(C4)C2)C3)CC1 | inconclusive [inhibitor, single point] | 
58 | Cc1nn(CCc2nn[nH]n2)c2nc(C(F)(F)F)cc(C(F)(F)F)c12 | inactive | 
59 | CSc1ccc(-c2nnn(CC(=O)NCc3ccccc3)n2)cc1 | inconclusive [inhibitor, single point] | 
60 | Cc1ccc2c(COC(=O)c3n[nH]c4ccccc34)cc(=O)oc2c1 | inconclusive [inhibitor, single point] | 
61 | C(=N\n1cnnc1)/c1ccccc1OCCOc1ccccc1 | inconclusive [inhibitor, single point] | 
62 | O=C(Cc1ccc(Cl)cc1)NCCc1cnc[nH]1 | inactive | 
63 | Cc1cccc(N2CC(C(=O)NCCC3=CCCCC3)CC2=O)c1C (stereo not given) | inconclusive [inhibitor, single point] | 
64 | CCC(C(=O)OC(C)C(=O)Nc1ccc(Cl)cn1)c1ccccc1 (stereo not given) | inactive | 
65 | COc1ccc(-c2csc(C(C#N)=C(O)CSc3nccn3C)n2)cc1OC | inactive | 
66 | CCOc1ccc(/C=N/NC(=O)COc2ccccc2-c2ccccc2)cc1 | active: 18.4 µM | 
67 | CCS(=O)(=O)c1nc(S(=O)(=O)c2ccc(C)cc2)c(NC(C)c2ccccc2)s1 (stereo not given) | inconclusive [inhibitor, single point] | 
68 | Cc1ccc(-c2cc(C(F)F)n3ncc(C(=O)N4CCCCC4c4cccnc4)c3n2)cc1 (stereo not given) | inconclusive [inhibitor, single point] | 
69 | O=c1oc2ccc(Cl)cc2nc1/C=C(\O)c1ccco1 | inconclusive [inhibitor, partial curve] | 
70 | COc1ccc(-c2nnc(Nc3ccc(OC)c(C(N)=O)c3)c3ccccc23)cc1 | inconclusive [inhibitor, single point] | 
